Assay results published in the supplement of paper PMC4967469.

Tests used:
Experiment in all cases: Viability of human cancer cell lines after 72 h of drug (GDSC screen)
Thapsigargin = compound: C/C=C(/C)C(=O)O[C@H]1C(C)=C2[C@H]([C@@H]1OC(=O)CCCCCCC)[C@@](C)(OC(C)=O)C[C@H](OC(=O)CCC)[C@@]1(O)[C@H]2OC(=O)[C@@]1(C)O [Thapsigargin]; settings: top dose 0.512 µM; top dose inferred
Method: (§1)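 Human cancer cell lines in 384-well plates, medium with 10% serum, drug for 72 h over a 256-fold dose range (nine 2-fold or five 4-fold steps up to the top dose). Adherent lines were fixed and stained with the nucleic acid dye Syto60, suspension lines read with resazurin; signal relative to control wells, capped at 0 and 100%. One two-parameter sigmoid per drug and line, fitted in a mixed model over all curves with the slope shared within a line.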

QL-X-138 = compound: C=CC(=O)Nc1cc(-n2c(=O)ccc3cnc4ccc(-c5cn[nH]c5)cc4c32)ccc1C [QL-X-138]; settings: top dose 10.24 µM; top dose inferred
Method: as §1

GSK269962A = compound: CCn1c(-c2nonc2N)nc2cnc(Oc3cccc(NC(=O)c4ccc(OCCN5CCOCC5)cc4)c3)cc21 [GSK269962A]; settings: top dose inferred
Method: as §1

MPS-1-IN-1 = compound: COc1cc(N2CCC(O)CC2)ccc1Nc1cc(Nc2ccccc2S(=O)(=O)C(C)C)c2cc[nH]c2n1 [MPS-1-IN-1]; settings: top dose 20 µM; top dose inferred
Method: as §1

(5Z)-7-Oxozeaenol = compound: COc1cc(O)c2c(c1)/C=C/C[C@H](O)[C@H](O)C(=O)/C=C\C[C@H](C)OC2=O [(5Z)-7-Oxozeaenol]; settings: top dose 10 µM; top dose inferred
Method: as §1

CP466722 = compound: COc1cc2ncnc(-n3nc(-c4ccccn4)nc3N)c2cc1OC [CP466722]; settings: top dose 16 µM; top dose inferred
Method: as §1

Zibotentan = compound: COc1nc(C)cnc1NS(=O)(=O)c1cccnc1-c1ccc(-c2nnco2)cc1 [Zibotentan]; settings: top dose 20 µM; top dose inferred
Method: as §1

ABT-888 = compound: C[C@]1(c2nc3c(C(N)=O)cccc3[nH]2)CCCN1 [ABT-888]; settings: top dose 5 µM; top dose inferred
Method: as §1

CMK = compound: Cc1ccc(-c2c(C(=O)CCl)n(CCCO)c3ncnc(N)c23)cc1 [CMK]; settings: top dose 4 µM; top dose inferred
Method: as §1

ABT-869 = compound: Cc1ccc(F)c(NC(=O)Nc2ccc(-c3cccc4[nH]nc(N)c34)cc2)c1 [ABT-869]; settings: top dose 1.024 µM; top dose inferred
Method: as §1

CHIR-99021 = compound: Cc1cnc(-c2cnc(NCCNc3ccc(C#N)cn3)nc2-c2ccc(Cl)cc2Cl)[nH]1 [CHIR-99021]
Method: as §1

Cytarabine = compound: Nc1ccn([C@@H]2O[C@H](CO)[C@@H](O)[C@@H]2O)c(=O)n1 [Cytarabine]; settings: top dose 2 µM
Method: as §1

KU-55933 = compound: O=c1cc(-c2cccc3c2Sc2ccccc2S3)oc(N2CCOCC2)c1 [KU-55933]; settings: top dose 10 µM
Method: as §1

[1] = top dose 2.5 µM, screen: GDSC drug entry 127
[2] = top dose 5 µM, screen: GDSC drug entry 1192
[3] = top dose 2.56 µM, screen: GDSC drug entry 154
[4] = top dose 10 µM, screen: GDSC drug entry 1241, top dose inferred

Cell Line | AUC (Thapsigargin) | IC50 (Thapsigargin) | AUC (QL-X-138) | IC50 (QL-X-138) | AUC (GSK269962A; [1]) | IC50 (GSK269962A; [1]) | AUC (GSK269962A; [2]) | IC50 (GSK269962A; [2]) | AUC (MPS-1-IN-1) | IC50 (MPS-1-IN-1) | AUC ((5Z)-7-Oxozeaenol) | IC50 ((5Z)-7-Oxozeaenol) | AUC (CP466722) | IC50 (CP466722) | AUC (Zibotentan) | IC50 (Zibotentan) | AUC (ABT-888) | IC50 (ABT-888) | AUC (CMK) | IC50 (CMK) | AUC (ABT-869) | IC50 (ABT-869) | AUC (CHIR-99021; [3]) | IC50 (CHIR-99021; [3]) | AUC (CHIR-99021; [4]) | IC50 (CHIR-99021; [4]) | AUC (Cytarabine) | IC50 (Cytarabine) | AUC (KU-55933) | IC50 (KU-55933)
LB771-HNC (head and neck, adherent) | 0.194 | 0.00297 µM | 0.85 | > 10.2 µM | 0.961 | > 2.5 µM | 0.937 | > 5 µM | 0.832 | 17.5 µM | 0.916 | > 10 µM | 0.879 | > 16 µM | 0.981 | > 20 µM | 0.872 | > 5 µM | 0.955 | > 4 µM | 0.975 | > 1.02 µM | 0.98 | > 2.56 µM | 0.976 | > 10 µM | 0.854 | > 2 µM | 0.977 | > 10 µM
LB1047-RCC (kidney, adherent) | 0.312 | 0.00883 µM | 0.774 | 4.53 µM | 0.934 | > 2.5 µM | 0.827 | 3.59 µM | 0.922 | > 20 µM | 0.499 | 0.62 µM | 0.777 | 7.28 µM | 0.983 | > 20 µM | 0.983 | > 5 µM | 0.802 | 2.26 µM | 0.96 | > 1.02 µM | 0.899 | > 2.56 µM | 0.898 | > 10 µM | 0.506 | 0.13 µM | 0.908 | > 10 µM
LB2518-MEL (melanoma, adherent) | 0.334 | 0.0108 µM | 0.987 | > 10.2 µM | 0.792 | 1.2 µM | 0.983 | > 5 µM | 0.938 | > 20 µM | 0.657 | 1.75 µM | 0.973 | > 16 µM | 0.982 | > 20 µM | 0.987 | > 5 µM | 0.961 | > 4 µM | 0.977 | > 1.02 µM | 0.89 | > 2.56 µM | 0.954 | > 10 µM | 0.941 | > 2 µM | 0.986 | > 10 µM
LC4-1 (lymphoblastic leukaemia, suspension) | 0.571 | 0.0512 µM | 0.334 | 0.21 µM | 0.964 | > 2.5 µM | 0.846 | 4.26 µM | 0.867 | > 20 µM | 0.573 | 1.01 µM | 0.623 | 2.27 µM | 0.973 | > 20 µM | 0.984 | > 5 µM | 0.958 | > 4 µM | 0.984 | > 1.02 µM | 0.968 | > 2.56 µM | 0.894 | > 10 µM | 0.942 | > 2 µM | 0.981 | > 10 µM
LOUCY (T-cell lymphoblastic leukaemia, suspension) | 0.533 | 0.0386 µM | 0.344 | 0.258 µM | 0.797 | 0.944 µM | 0.604 | 0.57 µM | 0.852 | 11.3 µM | 0.639 | 1.4 µM | 0.523 | 1.14 µM | 0.991 | > 20 µM | 0.992 | > 5 µM | 0.962 | > 4 µM | 0.601 | 0.115 µM | 0.988 | > 2.56 µM | 0.963 | > 10 µM | 0.845 | 1.07 µM | 0.929 | > 10 µM
LP-1 (myeloma, suspension) | 0.308 | 0.0103 µM | 0.523 | 0.73 µM | 0.991 | > 2.5 µM | 0.979 | > 5 µM | 0.838 | 10.3 µM | 0.822 | 4.58 µM | 0.738 | 4.14 µM | 0.987 | > 20 µM | 0.993 | > 5 µM | 0.903 | 3.67 µM | 0.983 | > 1.02 µM | 0.993 | > 2.56 µM | 0.972 | > 10 µM | 0.99 | > 2 µM | 0.98 | > 10 µM
LS-513 (large intestine, adherent) | 0.709 | 0.128 µM | 0.832 | 6.94 µM | 0.987 | > 2.5 µM | 0.976 | > 5 µM | 0.755 | 7.03 µM | 0.57 | 0.977 µM | 0.871 | > 16 µM | 0.986 | > 20 µM | 0.983 | > 5 µM | 0.964 | > 4 µM | 0.977 | > 1.02 µM | 0.951 | > 2.56 µM | 0.97 | > 10 µM | 0.565 | 0.19 µM | 0.987 | > 10 µM
LS-1034 (large intestine, adherent) | 0.465 | 0.0254 µM | 0.887 | > 10.2 µM | 0.986 | > 2.5 µM | 0.969 | > 5 µM | 0.764 | 7.98 µM | 0.78 | 4.57 µM | 0.867 | > 16 µM | 0.981 | > 20 µM | 0.974 | > 5 µM | 0.977 | > 4 µM | 0.986 | > 1.02 µM | 0.984 | > 2.56 µM | 0.977 | > 10 µM | 0.977 | > 2 µM | 0.977 | > 10 µM
LU-134-A (small cell lung carcinoma, suspension) | 0.663 |  | 0.728 | 2.99 µM | 0.944 | > 2.5 µM | 0.938 | > 5 µM | 0.941 | > 20 µM | 0.908 | > 10 µM | 0.935 | > 16 µM | 0.985 | > 20 µM | 0.987 | > 5 µM | 0.913 | > 4 µM | 0.974 | > 1.02 µM | 0.96 | > 2.56 µM | 0.981 | > 10 µM | 0.947 | > 2 µM | 0.984 | > 10 µM

The IC50 comes from the fitted curve, where viability falls to half of the control; fits outside the tested doses are given as limits. AUC is the area under the same curve over the 256-fold range up to the top dose, as a fraction; it is 1 without any effect and falls as sensitivity rises. For some assays here: An inferred top dose was derived from the fitted curves, not read from the paper. For some assays here: An entry number marks a drug with two screens in the source, which often give different values.
